# Assay results reported in the supplement of paper PMC8728848.
# The list shows a part of the results.
# B1: Epa6 (Candida glabrata), Q6DTM7_CANGB (protein)
# chain: MGSSHHHHHHSSGLVPRGSHMKDDYSSSLSNNNLGWTDPTEFPLGCSPNVTTPKNGLSMELYSYDYLKSGSNPCWDAAYLDPNYPRTGYKSHRLLAKVENVAGNINFYYHAPMGCTSLFDTLPQAYNYRTPLTMTNFTMLLYGYFKPKVTGYHTFTISADDLLFVNFGAGNAFDCCKRESSADDFGNYQAYAVWGSQTAKDDLTVHLDAGLYYPIRIFFNNRDNDGALSLTLKTESDPNPVIDFSDYFYSFDDTKDGCPGLVSYDTS
# What was measured:
# Experiment in all cases: glycan array binding signal (z-score within array); higher = stronger binding
# Settings in all cases: glycan notation: IUPAC condensed, linker removed
# [1] = molecular target: Fuc(a1-3)[Gal3S(b1-4)]GlcNAc
# Summary of the method: (§1)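 From the Consortium for Functional Glycomics database, 3228 arrays were curated, keeping only those whose protein sequence was available. Binding is given as a within-array Z-score averaged across arrays sharing a protein sequence and across linkers. Negative Z-scores can be read as non-binding.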
# [2] = molecular target: Fuc(a1-3)[Gal3S(b1-4)]GlcNAc6S
# Summary of the method: as §1
# [3] = molecular target: Fuc(a1-3)[GalNAc(b1-4)]GlcNAc
# Summary of the method: as §1
# [4] = molecular target: Fuc(a1-3)[GalNAc(b1-4)]GlcNAc6S
# Summary of the method: as §1
# Fuc(a1-4)GlcNAc = molecular target: Fuc(a1-4)GlcNAc
# Summary of the method: as §1
# Fuc(b1-3)GlcNAc = molecular target: Fuc(b1-3)GlcNAc
# Summary of the method: as §1
# Gal(a1-2)Gal = molecular target: Gal(a1-2)Gal
# Summary of the method: as §1
# Gal(a1-3)Gal = molecular target: Gal(a1-3)Gal
# Summary of the method: as §1
# Gal(a1-3)Gal(b1-3)GlcNAc = molecular target: Gal(a1-3)Gal(b1-3)GlcNAc
# Summary of the method: as §1
# [5] = molecular target: Gal(a1-3)Gal(b1-3)GlcNAc(b1-2)Man
# Summary of the method: as §1
# [6] = molecular target: Gal(a1-3)Gal(b1-3)GlcNAc(b1-2)Man(a1-3)[Gal(a1-3)Gal(b1-3)GlcNAc(b1-2)Man(a1-6)]Man(b1-4)GlcNAc(b1-4)GlcNAc
# Summary of the method: as §1
# [7] = molecular target: Gal(a1-3)Gal(b1-3)GlcNAc(b1-3)GalNAc
# Summary of the method: as §1
# [8] = molecular target: Gal(a1-3)Gal(b1-3)GlcNAc(b1-6)GalNAc
# Summary of the method: as §1
# [9] = molecular target: Gal(a1-3)Gal(b1-3)[Fuc(a1-4)]GlcNAc(b1-2)Man(a1-3)[Gal(a1-3)Gal(b1-3)[Fuc(a1-4)]GlcNAc(b1-2)Man(a1-6)]Man(b1-4)GlcNAc(b1-4)GlcNAc
# Summary of the method: as §1
# Gal(a1-3)Gal(b1-4)Glc = molecular target: Gal(a1-3)Gal(b1-4)Glc
# Summary of the method: as §1
# Gal(a1-3)Gal(b1-4)GlcNAc = molecular target: Gal(a1-3)Gal(b1-4)GlcNAc
# Summary of the method: as §1
# [10] = molecular target: Gal(a1-3)Gal(b1-4)GlcNAc(b1-2)Man
# Summary of the method: as §1
# [11] = molecular target: Gal(a1-3)Gal(b1-4)GlcNAc(b1-2)Man(a1-3)[Gal(a1-3)Gal(b1-4)GlcNAc(b1-2)Man(a1-6)]Man(b1-4)GlcNAc(b1-4)GlcNAc
# Summary of the method: as §1
# [12] = molecular target: Gal(a1-3)Gal(b1-4)GlcNAc(b1-3)GalNAc
# Summary of the method: as §1
# [13] = molecular target: Gal(a1-3)Gal(b1-4)GlcNAc(b1-6)GalNAc
# Summary of the method: as §1
# [14] = molecular target: Gal(a1-3)Gal(b1-4)[Fuc(a1-3)]GlcNAc
# Summary of the method: as §1
# [15] = molecular target: Gal(a1-3)Gal(b1-4)[Fuc(a1-3)]GlcNAc(b1-2)Man(a1-3)[Gal(a1-3)Gal(b1-4)[Fuc(a1-3)]GlcNAc(b1-2)Man(a1-6)]Man(b1-4)GlcNAc(b1-4)GlcNAc
# Summary of the method: as §1
# Gal(a1-3)GalNAc = molecular target: Gal(a1-3)GalNAc
# Summary of the method: as §1
# [16] = molecular target: Gal(a1-3)[Gal(a1-4)]Gal(b1-4)GlcNAc
# Summary of the method: as §1
# [17] = molecular target: Gal(a1-4)Gal(b1-3)GlcNAc(b1-2)Man(a1-3)[Gal(a1-4)Gal(b1-3)GlcNAc(b1-2)Man(a1-6)]Man(b1-4)GlcNAc(b1-4)GlcNAc
# Summary of the method: as §1
# Gal(a1-4)Gal(b1-4)Glc = molecular target: Gal(a1-4)Gal(b1-4)Glc
# Summary of the method: as §1
# Gal(a1-4)Gal(b1-4)GlcNAc = molecular target: Gal(a1-4)Gal(b1-4)GlcNAc
# Summary of the method: as §1
# [18] = molecular target: Gal(a1-4)Gal(b1-4)GlcNAc(b1-2)Man(a1-3)[Gal(a1-4)Gal(b1-4)GlcNAc(b1-2)Man(a1-6)]Man(b1-4)GlcNAc(b1-4)GlcNAc
# Summary of the method: as §1
# [19] = molecular target: Gal(a1-4)Gal(b1-4)GlcNAc(b1-3)Gal(b1-4)Glc
# Summary of the method: as §1
# Gal(a1-4)GlcNAc = molecular target: Gal(a1-4)GlcNAc
# Summary of the method: as §1
# Gal(a1-6)Glc = molecular target: Gal(a1-6)Glc
# Summary of the method: as §1
# Gal(b1-2)Gal = molecular target: Gal(b1-2)Gal
# Summary of the method: as §1
# Gal(b1-3)Gal = molecular target: Gal(b1-3)Gal
# Summary of the method: as §1
# Gal(b1-3)Gal(b1-4)GlcNAc = molecular target: Gal(b1-3)Gal(b1-4)GlcNAc
# Summary of the method: as §1
# Gal(b1-3)GalNAc = molecular target: Gal(b1-3)GalNAc
# Summary of the method: as §1
# [20] = molecular target: Gal(b1-3)GalNAc(a1-3)[Fuc(a1-2)]Gal(b1-4)Glc
# Summary of the method: as §1
# [21] = molecular target: Gal(b1-3)GalNAc(a1-3)[Fuc(a1-2)]Gal(b1-4)GlcNAc
# Summary of the method: as §1
binder,measurement,setting,value
B1,glycan array binding signal (z-score),[1],-0.314
same,glycan array binding signal (z-score),[2],-0.263
same,glycan array binding signal (z-score),[3],-0.246
same,glycan array binding signal (z-score),[4],-0.315
same,glycan array binding signal (z-score),Fuc(a1-4)GlcNAc,-0.305
same,glycan array binding signal (z-score),Fuc(b1-3)GlcNAc,-0.331
same,glycan array binding signal (z-score),Gal(a1-2)Gal,-0.198
same,glycan array binding signal (z-score),Gal(a1-3)Gal,1.37
same,glycan array binding signal (z-score),Gal(a1-3)Gal(b1-3)GlcNAc,0.983
same,glycan array binding signal (z-score),[5],2.08
same,glycan array binding signal (z-score),[6],0.074
same,glycan array binding signal (z-score),[7],0.907
same,glycan array binding signal (z-score),[8],1.16
same,glycan array binding signal (z-score),[9],-0.234
same,glycan array binding signal (z-score),Gal(a1-3)Gal(b1-4)Glc,0.895
same,glycan array binding signal (z-score),Gal(a1-3)Gal(b1-4)GlcNAc,2.83
same,glycan array binding signal (z-score),[10],1.11
same,glycan array binding signal (z-score),[11],3.7
same,glycan array binding signal (z-score),[12],1.39
same,glycan array binding signal (z-score),[13],0.772
same,glycan array binding signal (z-score),[14],-0.08
same,glycan array binding signal (z-score),[15],-0.106
same,glycan array binding signal (z-score),Gal(a1-3)GalNAc,4.17
same,glycan array binding signal (z-score),[16],2.11
same,glycan array binding signal (z-score),[17],6.23
same,glycan array binding signal (z-score),Gal(a1-4)Gal(b1-4)Glc,1.45
same,glycan array binding signal (z-score),Gal(a1-4)Gal(b1-4)GlcNAc,4.65
same,glycan array binding signal (z-score),[18],4.02
same,glycan array binding signal (z-score),[19],4.42
same,glycan array binding signal (z-score),Gal(a1-4)GlcNAc,1.3
same,glycan array binding signal (z-score),Gal(a1-6)Glc,8.63
same,glycan array binding signal (z-score),Gal(b1-2)Gal,6.14
same,glycan array binding signal (z-score),Gal(b1-3)Gal,2.6
same,glycan array binding signal (z-score),Gal(b1-3)Gal(b1-4)GlcNAc,10
same,glycan array binding signal (z-score),Gal(b1-3)GalNAc,0.883
same,glycan array binding signal (z-score),[20],4.95
same,glycan array binding signal (z-score),[21],5.98
